# Measured values as given in paper PMC4336329 (PLoS ONE, 2015).
# Screen size: about 310,000 compounds; about 14,000 (4.5%) showed an effect of 50% or more. The effect is printed as a negative number. The list shows a part of the results.
# Biological target: human ether-à-go-go-related gene (hERG) potassium channel (human, UniProt Q12809)
# Assay: primary screen, population patch clamp on CHO cells stably expressing hERG
# 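Also: peak tail current of the secondary pulse compared with the same well before compound.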
# Sequence of human ether-à-go-go-related gene (hERG) potassium channel (Q12809 whole entry, looked up): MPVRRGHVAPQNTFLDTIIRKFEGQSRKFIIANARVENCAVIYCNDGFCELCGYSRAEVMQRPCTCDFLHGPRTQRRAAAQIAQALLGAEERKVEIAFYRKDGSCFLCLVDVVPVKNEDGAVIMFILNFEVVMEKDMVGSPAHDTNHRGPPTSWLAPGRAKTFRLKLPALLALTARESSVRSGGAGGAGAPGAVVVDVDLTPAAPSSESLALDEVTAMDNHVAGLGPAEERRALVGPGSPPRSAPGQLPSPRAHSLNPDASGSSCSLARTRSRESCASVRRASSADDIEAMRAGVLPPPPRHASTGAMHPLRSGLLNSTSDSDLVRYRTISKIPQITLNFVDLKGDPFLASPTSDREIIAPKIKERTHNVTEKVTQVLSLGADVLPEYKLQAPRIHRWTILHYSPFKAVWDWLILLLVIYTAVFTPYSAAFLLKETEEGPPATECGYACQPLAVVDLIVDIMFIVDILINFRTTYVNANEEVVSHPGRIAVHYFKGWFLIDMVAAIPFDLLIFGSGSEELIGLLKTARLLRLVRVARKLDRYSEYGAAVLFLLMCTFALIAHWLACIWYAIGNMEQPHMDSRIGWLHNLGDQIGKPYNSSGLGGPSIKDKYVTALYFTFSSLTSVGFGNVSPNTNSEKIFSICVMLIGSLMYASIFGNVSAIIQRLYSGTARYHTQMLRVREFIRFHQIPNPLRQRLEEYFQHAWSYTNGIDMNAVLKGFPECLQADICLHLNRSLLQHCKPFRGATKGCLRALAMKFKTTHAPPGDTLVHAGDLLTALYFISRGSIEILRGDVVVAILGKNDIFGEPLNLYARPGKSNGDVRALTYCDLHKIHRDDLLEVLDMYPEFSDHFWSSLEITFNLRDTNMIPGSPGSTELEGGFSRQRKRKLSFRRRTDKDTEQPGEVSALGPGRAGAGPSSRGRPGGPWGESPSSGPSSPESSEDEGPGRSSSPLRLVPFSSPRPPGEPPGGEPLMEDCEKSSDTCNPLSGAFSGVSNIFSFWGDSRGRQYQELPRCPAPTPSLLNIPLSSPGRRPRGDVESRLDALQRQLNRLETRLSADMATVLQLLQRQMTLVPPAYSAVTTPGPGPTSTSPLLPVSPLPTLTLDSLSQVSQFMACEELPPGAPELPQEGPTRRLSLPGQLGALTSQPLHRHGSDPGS
row,Structure (SMILES),"hERG current change (%, negative = inhibition) at 10uM [%]"
1,Cc1ccc(Cl)cc1-n1c(O)c(C=NCCCN2CCOCC2)c(=O)[nH]c1=O,12.1
2,CC1Cc2ccccc2N1C(=S)NC(=O)c1ccc(Cl)cc1Cl (centres unmarked),4.89
3,Cc1nc(NCCc2ccccc2)sc1C(=O)N(C)C,5.87
4,Cc1[nH]nc(N)c1-c1ccc(Cl)cc1,7.49
5,CCN(C(=O)c1c(C)noc1C)c1c(N)n(Cc2ccccc2)c(=O)[nH]c1=O,4.33
6,CN(C)c1cc[n+](CC(=O)Nc2cccc([N+](=O)[O-])c2)cc1.[Cl-],30.7
7,CCC(C)(C)NC(=O)c1cc(S(=O)(=O)N2CCCCC2)ccc1N1CCOCC1,-13.4
8,COc1ccccc1C(c1nnnn1C(C)(C)C)N1CCN(Cc2ccncc2)CC1 (centres unmarked),3.11
9,O=C(CSc1nnc(-c2ccccc2)n1-c1ccccc1)N1c2ccccc2Sc2ccccc21,-4.79
10,O=S(=O)(Nc1ccc(N2CCCCC2)cc1)c1ccccc1,-2.74
11,CCCCC[C@H]1CN(C2CCCCC2)C(=O)[C@@H]1CC(=O)NCc1ccccc1,-67.7
12,Nc1ccc(-n2nncc2-c2ccccc2)cc1,11.8
13,COc1cc(C(=O)Oc2ccc3ccc(O)cc3c2)cc(OC)c1OC,12.5
14,COc1ccccc1C(=O)NCCC(=O)NC(C)CCc1ccccc1 (centres unmarked),-2.22
15,O=C1CCC(C(=O)N2CCCCCCC2)CN1Cc1cccc(C(F)(F)F)c1 (centres unmarked),-22.4
16,CCC(C)[C@H](NC(=O)OC(C)(C)C)C(=O)N/N=C/C1=Cc2ccccc2OC1 (some centres unmarked),-20
17,COc1ccc(C(=O)N2CC3(C)C4CCC3(C)C2(C#N)C4)cc1OC (centres unmarked),4.65
18,C/C(CC1CC(C)OC1=O)=N\NC(N)=S (centres unmarked),10.5
19,COc1cc(NC(=O)N[C@@H](Cc2c[nH]c3ccccc23)C(=O)O)c(C(=O)O)cc1OC,19

row,Structure (SMILES),"hERG current change (%, negative = inhibition) at 10uM [%]"
1,CCOc1ccc(NC(=O)NC23CC4CC(CC(C4)C2)C3)cc1,-9.59
2,CCOC(=O)C1(Cc2ccc(Cl)cc2)CCN(C(C)Cc2ccc(O)c(OC)c2)CC1 (centres unmarked),-70.8
3,CCOc1cc(/C=N/NC(=O)CSc2nnc(C)s2)ccc1OCc1ccccc1Cl,-3.44
4,Cc1cc(OCCCn2ccnc2)cc(C(C)C)c1,-14.4
5,Cc1ccc(S(=O)(=O)N(C)C)cc1NC(=O)C(C)OC(=O)C1CCCC1 (centres unmarked),-61.2
6,CS(=O)(=O)N(CC(=O)NCc1ccccc1)C1CCCCC1,-7.88
7,COc1ccc(N2C(=O)C(CC(=O)Nc3ccc(F)cc3)N(CCc3cccs3)C2=O)cc1 (centres unmarked),-25.3
8,COc1ccc2cc1Oc1ccc(cc1)C[C@H]1c3c(cc4c(c3Oc3cc5c(cc3OC)CCN(C)[C@@H]5C2)OCO4)CCN1C,-46.8
9,Cc1cccc(N2C(=O)C3C4CC(=O)C(c5ccccc54)C3C2=O)c1C (centres unmarked),-3.65
10,Cc1onc(-c2ccccc2Cl)c1C(=O)NCc1ccc(S(N)(=O)=O)cc1,9.04
11,CNc1ncc(C(=O)c2ccc(Cl)cc2)s1,3.51
12,Cn1c(=O)c(=O)n(C)c2cc(N3CCOCC3)c(NS(=O)(=O)c3ccc(Br)cc3)cc21,-27
13,CCCCOC(=O)C1CN(c2ccccc2)N=C1C(=O)OCC (centres unmarked),-11.7
14,CCOc1ccc(N(C)C(=O)CCc2nnc3ccc(NCc4ccco4)nn23)cc1,9.15
15,CCOc1ccc(Nc2nc(N)nc(CSC(=S)N3CCOCC3)n2)cc1,-2
16,CC(C)(O)P(=O)(O)CCc1ccccc1,26.2
17,Cc1ccccc1OCC(=O)N/N=C/c1cn(Cc2ccccc2)c2ccccc12,10.5
18,CCCc1cc(=O)oc2c(C)c(O[C@@H]3O[C@H](CO)[C@@H](O)[C@H](O)[C@H]3O)ccc12,22.7
19,Cc1ccc(-c2nc3ncccc3o2)cc1N,10.7

row,Structure (SMILES),"hERG current change (%, negative = inhibition) at 10uM [%]"
1,C/C(Cc1ccccc1)=N\NC(=O)c1cc(C(C)(C)C)[nH]n1,-7.49
2,O=C(Nc1ccc(OCC(=O)N2CCOCC2)cc1)c1cc(F)c(F)cc1Cl,13.7
3,CSc1nc(SCC(N)=O)c2c3c(sc2n1)CN(C)CC3,-0.306
4,COCC(=O)Nc1cc(=O)n(C)c(=O)n1C,4.94
5,O=C1NCC2=C1C(c1ccccc1)Nc1ccccc1N2 (centres unmarked),11.3
6,O=C(CCCn1cnc([N+](=O)[O-])n1)Nc1ccc(Cl)c(Cl)c1,-29.8
7,CCSc1nnc(-c2cnn(-c3ccccc3)c2-n2cccc2)n1C,-12.9
8,Cc1cc(NC(=O)Cn2c(=O)c3c(ncn3CC(C)C)n(Cc3ccccc3)c2=O)no1,-4.71
9,O=C(OCC(=O)N1CCC(Cc2ccccc2)CC1)c1ccccc1NCCO,-33.3
10,Cc1ccc(-c2c(C(=O)N/N=C/c3sccc3C)nnn2-c2nonc2N)cc1,20.5
11,Cc1ccc(-c2cc(C(=O)N/N=C/c3ccc(Cl)cc3)n[nH]2)o1,3.49
12,CN1CCN(C(=O)CN(CCc2ccccc2)S(C)(=O)=O)CC1,11
13,Cc1ccc(C)c(NC(=O)CSc2nc3ccc(N4C(=O)c5ccccc5C4=O)cc3s2)c1,12.7
14,Cc1ccc(CNC(=O)COC(=O)c2cnc(C)cn2)cc1,1.47
15,CCCN1CCN(CCCNC(=O)c2ccc3c(Cl)c4c(nc3c2)CCCC4)CC1,-61.1
16,NC(=O)CNC(=O)c1ccc(Cl)cc1,22.7
17,CCC(C(=O)O/N=C(\N)c1cccc(C)c1)c1ccccc1 (centres unmarked),7.28
18,COc1cc(CCCN2C(=S)NC[C@@H]2CC2CCCCC2)cc(OC)c1OC,-1.89
